# Measurements reported in the RNAGym collection of RNA variant scans (doi:10.7554/elife.90254).
# The source gives no read counts; variants with many changes may rest on few reads.
# B1: LINE1-mini (parent)
# chain: GGCAGAGCUCAACACAGCGUGGCAAAGUGGCUGUGGCUAGACUGCC
# Variants of: B1
# Test: self-cleavage, relative activity (ratio to wild type); higher = more cleavage; in vitro, sequencing; the parent is a self-cleaving ribozyme
row,Variant,self-cleavage
1,AGCAUAGUUCAACACAGAGUGGCAAAGUGGCUGUGGCUAGACUGCC,0.56
2,GGCAGAGCUCAUCACAGCGCGGAAAUGUGGCCGUGGCUAGACUGCC,0.02
3,GGCAGAGCUCAACACAUCGUGGCAGAGGGGCUGUGGCUAGACUGCC,0.15
4,GGCAGAGCUCACCACAGUGUGGCAAAGUGACUGUGGCUAGCCUGCC,0.02
5,GGCCGAGAUGAACACCGCGUGGCAAAGUGGCUGUGGCUAGACUGCC,0.02
6,GGCAGAACCCAACACAUCGUGGCACAGUGGCUGUGGCUAGACUGCC,0.09
7,GGCAGGGCUCAAAACAGCAUGGCAAAGUGGCUGUGGCUAGACAGUC,0.21
8,GGCAGAGCUCAACACUGCGUGGCAAAGUGGCUGUGUCUAGAUUGCC,0.12
9,GGCAGAGCUCAACACAGAGAGGCAAAGUGGCUGUGGCUAGACCGCC,0.02
10,GGCAGAGCUCAACACAGCGUGGGACAGCGGCUGUGGCUAGACUGCC,0.21
11,GGCAGAGCUCAACACUUCGUGGCAAAGUGGGUGUGGCUAGACUGCC,0.05
12,GGCAGACCUCAACACACCCUGGCAAAGUGGCUGUGGCUAGACUACC,0.17
13,GCCAUAGCUCAACACAGCGUGGCACCGUGACUGUGGCUAGACUGCC,0.01
14,GGCAGAGCUCACAACAGUGUGGCAAAGUGGCUGUGGCUAGACUGCC,0.01
15,GUCAGAGCUCAACACAGCGUGCCAUAGUGGCCGUGGCUAGACUGCC,0.17
16,CGCAGAGCUCAACACAGCGUGGCAAGGUGGCUGUUGCUAGAGUGCC,0.01
17,GGCAGAGCUUAACACAGCGUCCCAAAGGGGCUAUGGCUAGACUGCC,0.13
18,GGCAGAGAUCAUCACAGCGUGGCAAAGUGACUCUGGCUAGACUGCC,0.01
19,GGCGGAGCUCAACACAGCGUGGCAAAUUGGCUGUGGAUAGACUGCC,0.57

row,Variant,self-cleavage
1,GGCAGAGCUCAACACAGGGUGACAAAGUGGCUCUGGCUAGACUGCC,0.02
2,GGCAGAGCUCAACACAGCGUGGUAAAGUGGCUGUGGCUAGUCUCCC,0.37
3,GGCAGAGCUCAACACAGCGUGGCACAGUGGCUUUGGCUAGUCUGCC,0.13
4,GGCUGAGCUAAACACACCGUGGCAAAGUGGCUGUGGCUAGACUGCC,0.01
5,GGCAGAGCUUAACACAGCGUGGCAAAGUUUCUGUGGCUAGACUGCC,0.3
6,GGCAGAGCUCAACACAGCUUUGCAAAGUGGCUGUGGCUAGAGUGAC,0.06
7,GGCAGAGCUCAACACAGCGUGGCAAAGGUGCUGUGACUAGACUGCC,0.14
8,GGUAGAUCUCAACACAGAGUGGCAAAGUGACUGUGGCUAAACUGCC,0.12
9,AGCAGAGCUCAAUACAGCGGGGCAAAGUGGCUGUAGCUAGACUGCC,0.17
10,GGCAGAGCUCAAGACAGCGUGGCAAAGUGGCUGUGGCUAGACCGUC,0.04
11,GGCAGAGCUCAAUACAGCGUGGCAAGGUCGCUGUGGCUAGACUGCG,0.03
12,GGCAGAGCUCAACGCAGCGUGACAAAGUGCCUGUGGCUAGGCUGCC,0.15
13,GGCAGAGCUCAACAGAGCGUGGCAAACUGGCUGUAGCUAGACUGCC,0.05
14,GGCAGAGGUCAACAAAGCGUGGAAAAGUGGCUGUGGCUAGACUGCC,0.01
15,GGCAGAGGUCAACACAACUUGGCAAAGUGGCUGUGGCUAGACUGGC,0.05
16,GGCAGAGCACAACACAGCGUGGCAAAGUAGAUGUGGCUAGACUGUC,0.15
17,AGCAGAGCUUAACACAGGGUGGCAAAGUGGCUGUUGCUAGACUGCC,0.03
18,GGAAGAGAUCAACACAGAGUGGCAAAGUGGCUGUGGCUAGUCUGCC,0.7
19,GGCAGAGCUCAACACAGCGCGGCUAAGUGGCUCUGGCUAGACUGCC,0.05

row,Variant,self-cleavage
1,GGCAGAUUUCAACACAGCGUGGCAAAGUGGGUGCGGCUAGACUGCC,0.11
2,GGCAGAGCUCAACAGAGCCUGGCAAAGGCGCUGUGGCUAGACUGCC,0.02
3,GGGAGAGCUCAACACAGAAUGCCAAAGUCGCUGUGGCUAGACUGCC,0.06
4,GGCAUAGCUCAACACAGCGUGGCGAAGUGGCUGUGGCUAGACUGCA,0
5,GGUAGAGCUCAAUACAGCGUGGCAAACGGGCUGUGGCUAGACUGCC,0.14
6,GGCAGAGCUUAACACAGGGUGGCAAAGUGGCGGUGGCUAGACUGCC,0.06
7,GUCAGAGCUCAACACAGCGUGGAAAAGUGGCUGUGGCUAGACUGCA,0.08
8,GGGCGAGCUCAACACAGCGUGGCAAAGUGGAUGUGGCUAGACUGCC,0.61
9,CGCAGAUCUCAACACAGCGUGGCAAAGUGGCUGUGGCUAGACUGUC,0.01
10,GGCAGAGCUCUACACAGCGUGGCAAUGUGGCUGUGGCUAGUCUGCC,0.06
11,GGUAGCGCUCAACUCAGCCUGGCAAAGUGGCUGUGGCUAGACUACC,0.76
12,GGCAGAGCUCAACACAGCAUCGCAAAAUUGCUGUGGCUAUACUGCC,0.01
13,GGCACAGCUCUACACAUCGUGGCAAAUUGGCUAGGGCUAGACUGCC,0.01
14,GGCAGAGCUCAACACAGUGUUCCAAAGUGGCUGUGGUUAGACUGCC,0.05
15,GGUAGAGGUCAACACAGCAUGGCAAAGUGCCUGUGGCUAGACUGCC,0.02
16,GGCAGAGGUCAACACAGCGUGGCAAAGUGGCUGUGGCUAAUCUGCC,0.11
17,GGCAGAGCUCAACACAGUGUGGCAAAGUGGCUGUGGCUCGACAGCC,0
18,GGCGGAGCUCAACACAGCUUGGCAAAGUGGCGGUGGCUAGACUGCC,0.28
